# Results published in PubChem BioAssay AID488969 (Vanderbilt High Throughput Screening Facility, 2010).
# The full ranking holds about 110,000 compounds; the median of “z-score” is about -0.1, and the highest 2% start at about 2. This is one part of the list.
# Target: Metabotropic glutamate receptor 8 (Rattus norvegicus) (UniProt P70579)
# Test: mGluR8 Gi/Go-coupled signaling modulation – cell-based, rat, thallium flux, HTS, primary screen (AID 488969)
# Conditions: HEK293 rat mGluR8, GIRK (G protein-gated inwardly rectifying potassium channel) thallium flux, FluoZin2; at 10 µM; stronger effect = higher value
# UniProt P70579, sequence (P70579 whole entry, looked up): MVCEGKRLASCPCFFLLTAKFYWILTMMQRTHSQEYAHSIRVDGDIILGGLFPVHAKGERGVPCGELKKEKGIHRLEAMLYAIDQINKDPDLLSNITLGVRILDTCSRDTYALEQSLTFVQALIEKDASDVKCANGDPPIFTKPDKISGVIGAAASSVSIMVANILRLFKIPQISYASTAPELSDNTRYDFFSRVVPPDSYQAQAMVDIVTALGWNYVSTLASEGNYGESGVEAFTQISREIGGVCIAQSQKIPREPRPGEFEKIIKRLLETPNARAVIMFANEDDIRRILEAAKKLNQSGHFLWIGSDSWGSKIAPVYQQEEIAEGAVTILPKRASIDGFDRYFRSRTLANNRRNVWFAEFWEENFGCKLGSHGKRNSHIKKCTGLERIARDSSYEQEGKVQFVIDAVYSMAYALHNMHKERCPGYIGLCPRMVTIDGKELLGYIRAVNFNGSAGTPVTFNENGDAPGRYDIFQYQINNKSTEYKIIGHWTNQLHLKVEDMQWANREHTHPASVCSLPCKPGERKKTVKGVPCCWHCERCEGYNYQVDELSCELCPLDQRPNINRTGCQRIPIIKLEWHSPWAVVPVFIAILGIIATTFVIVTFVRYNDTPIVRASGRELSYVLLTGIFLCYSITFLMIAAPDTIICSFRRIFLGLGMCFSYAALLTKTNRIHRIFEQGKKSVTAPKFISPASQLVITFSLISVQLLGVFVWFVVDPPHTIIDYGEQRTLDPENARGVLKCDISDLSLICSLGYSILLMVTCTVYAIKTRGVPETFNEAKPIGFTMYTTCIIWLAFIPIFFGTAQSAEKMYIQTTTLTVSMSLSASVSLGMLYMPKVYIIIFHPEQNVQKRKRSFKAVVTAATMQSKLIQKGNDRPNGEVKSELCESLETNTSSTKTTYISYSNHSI
row,Compound,z-score
1,CCCCn1c(O)c(C(CC)=NCc2ccc(F)cc2)c(=O)[nH]c1=O,-0.493
2,Nc1c(C(=O)NCc2ccco2)c2nc3ccccc3nc2n1CCN1CCCCC1,0.56
3,COc1ccc(NP(=O)(Oc2ccc(Cl)cc2)Oc2ccc(Cl)cc2)cc1OC,-0.138
4,Cc1ccc(S(=O)(=O)CC(C)(O)C(=O)Nc2cccc(C(F)(F)F)c2)cc1 (stereo not given),0.0261
5,Cc1cc(N(CCCl)CCCl)ccc1/C=N/NC(=O)c1ccco1,-2.12
6,Cc1cc(C)cc(-n2c(O)c(C=Nc3ccc(N4CCOCC4)cc3)c(=O)[nH]c2=S)c1,-0.109
7,CCC(=O)CC(c1ccc([N+](=O)[O-])cc1)c1c(O)c2ccccc2oc1=O (stereo not given),-0.268
8,COC1=CCC2([N+](=O)[O-])CN(C)CC1([N+](=O)[O-])C2 (stereo not given),-0.0834
9,O=C(N/N=C/c1c(O)n(Cc2ccccc2)c(=O)[nH]c1=O)c1ccccc1,-0.312
10,CN1C(=O)C(=Cc2ccc(N3CCCCC3)o2)C(=O)N(C)C1=S,-0.179
11,Cc1cc(C=O)c(C)n1CC1CCCO1 (stereo not given),0.421
12,O=c1c2ccccc2nc(-c2cccs2)n1-c1ccccc1,-0.34
13,O=C(NC(Cc1ccccc1)C(=O)N1CCC2(CC1)OCCO2)C1CCCCC1 (stereo not given),0.317
14,Cc1ccc(OCC(=O)N2CCN(C)CC2)c(Br)c1,-0.043
15,COc1ccccc1OP(=O)(Nc1cccnc1)Oc1ccccc1OC,0.134
16,O=C(CCN1CCCCC1)NCC(=O)Nc1ccc(Br)cc1C(=O)c1ccccc1,-0.353
17,COc1ccc(-c2nc3ccccc3n2OC(=O)N(C)C)cc1,-0.277
18,O=CC(Cl)P(=O)(N1CCCCC1)N1CCCCC1 (stereo not given),-0.205
19,CN(C)c1ccc(NC(=O)CN2C(=O)CN=C(c3ccccc3)c3ccccc32)cc1,-0.402
20,CCCSc1nc(O)c(CC)c(=O)n1C(C)CC (stereo not given),-0.288
21,CCC(=NCc1cccnc1)c1c(O)n(Cc2ccccc2)c(=O)[nH]c1=O,-0.0208
22,COc1ccc(C2=NCC(=O)N(CC(=O)NCc3ccco3)c3sc4c(c32)CCCC4)cc1OC,-1

row,Compound,z-score
1,Cc1c(NC(=O)C(C)OC(=O)Cc2ccccc2)c(=O)n(-c2ccccc2)n1C (stereo not given),-0.0944
2,CCCCn1c(O)c(C(CC)=NCc2cc(OC)cc(OC)c2)c(=O)[nH]c1=O,-0.703
3,O=C(Nc1ccc(Br)cc1)c1nn(C23CC4CC(CC(C4)C2)C3)cc1Br,-0.238
4,c1ccc(CNC2=NCCS2)cc1,0.134
5,CCOc1cc(C2NCc3ccccc3-n3cccc32)ccc1O (stereo not given),1.71
6,CCC(C)(C)n1nnnc1CN1CCC(n2c(C)nc3cc(C(F)(F)F)ccc32)CC1,-0.21
7,CCCCn1c(O)c(C(C)=NCC2CCCO2)c(=O)[nH]c1=O (stereo not given),-0.427
8,O=C1NC(=O)N(c2ccc3c(c2)OCO3)C(=O)/C1=C\c1ccc(N2CCCCC2)o1,-0.906
9,CCN1CCN(Cc2cc(OC)c(OC)cc2[N+](=O)[O-])CC1,-0.494
10,O=C(C1CCCO1)N1CCC2(CC1)OCCO2 (stereo not given),-0.26
11,Cc1nc2cc(F)ccc2n1C1CCN(Cc2nnnn2CCc2ccccc2)CC1,0.0251
12,O=c1[nH]c(=S)n(-c2ccccc2F)c(O)c1C=NCc1ccco1,0.14
13,Cc1ccsc1-c1nc(CSCC(=O)N2CCC3(CC2)OCCO3)c(C)o1,-0.00292
14,Cc1cc(S(=O)(=O)NCc2ccccc2)ccc1OCC(=O)N1CCN(C)CC1,0.0532
15,Cc1cc(C)cc(N2C(=O)NC(=O)/C(=C/c3cccn3-c3ccc(Cl)cc3)C2=O)c1,-0.118
16,CC12CN3CCN(C1)CC(C)(C3)C2=NO,-0.429
17,O=C(CNC(=O)c1ccccc1)Nc1ccc(Br)cc1C(=O)c1ccccc1,-1.27
18,CCn1c(O)c(/C(C)=N/N2CCCCC2c2cccnc2)c(=O)[nH]c1=S (stereo not given),-0.0159
19,CCNC(=O)NC(=O)C(C)OC(=O)c1c(C)nn(Cc2ccccc2Cl)c1Cl (stereo not given),-0.396
20,O=S(=O)(c1ccc(Cl)cc1)N1CC1c1ccccc1 (stereo not given),-0.166
21,Cc1ccc(C(c2nnnn2Cc2ccccc2)N2CC=C(c3ccc(F)cc3)CC2)cc1 (stereo not given),0.127
22,Oc1ccc(/C=N/NP(=S)(c2ccccc2)c2ccccc2)cc1,1.52

row,Compound,z-score
1,C=CCN1C(=O)/C(=C/c2ccc3c(c2)CCCN3CCC)C(=O)NC1=S,-0.695
2,O=c1[nH]c(O)c(/C=C2\C=NN=C2c2ccccc2)c(=O)[nH]1,-0.00409
3,O=P(/C(=N/O)N1CCOCC1)(N1CCOCC1)N1CCOCC1,-0.127
4,O=C(OCC(=O)c1ccc([N+](=O)[O-])cc1)/C(=C/c1ccc(Cl)cc1)NC(=O)c1ccccc1,0.891
5,CCN1CCN(Cc2ccc(OC(F)(F)F)cc2)CC1,0.803
6,Cc1ccc2c(c1)N(N=O)CCC2,0.189
7,O=C(CF)NC(Nc1cccc2cccnc12)C(Cl)(Cl)Cl (stereo not given),-0.523
8,CCC(=NCc1ccco1)c1c(O)n(C2CCCCC2)c(=O)[nH]c1=O,-0.722
9,CN(C)CC1CSCCC1(O)c1ccc(C(F)(F)F)cc1 (stereo not given),-0.151
10,N#CCP(=S)(c1ccccc1)c1ccccc1,-0.272
11,CCOC(=O)C(O)(c1cn(C)c2ccccc12)C(F)(F)F (stereo not given),-0.0638
12,Cc1cccc(-c2nc3ccccc3c(=O)n2-n2cccc2)c1,-1.42
13,COc1cc(/C=N/n2cnnc2)ccc1OC(=O)N(C)C,0.106
14,Cc1ccc(-c2nc3ccccc3c(=O)n2-c2cc(C)ccn2)cc1,-0.23
15,CCCCCSc1cc(O)c(C(CNC)C(C)C)cc1OC (stereo not given),0.00978
16,CN1C(=O)C(C2c3ccccc3C(=O)N2Cc2ccccc2)C(=O)N(C)C1=O (stereo not given),0.585
17,CCc1cccc2c(C#N)cn(CC(=O)N3CCOCC3)c12,0.394
18,CCn1c(C)c(C(=O)O)c2cc(OC)ccc21,-0.484
19,COc1ccc(C2NCc3ccccc3-n3cccc32)cc1 (stereo not given),2.1
20,CC1OC(NCCc2ccccc2)C(O)C(O)C1O (stereo not given),0.00686
21,CCCCC12CNCC(C)(CNC1)C2=O,0.332
22,CCN1c2nc3c(C)cccn3c(=O)c2CC2(C(=O)N(C)C(=O)N(C)C2=O)C1C (stereo not given),0.294

row,Compound,z-score
1,CC(Cc1ccccc1)NC(=O)Cc1ccc(N(C)C)cc1 (stereo not given),-0.255
2,CN1C(=O)C(=Cc2ccccc2Oc2ccc(Cl)c(F)c2)C(=O)N(C)C1=O,-0.0902
3,CC(=O)c1ccc(OC(NC(=O)c2ccco2)C(Cl)(Cl)Cl)cc1 (stereo not given),-0.156
4,COc1ccccc1N1CCN(C(CNC(=O)Oc2ccccc2)c2cccnc2)CC1 (stereo not given),0.0633
5,CC1CCC(C(C)C)C(OP(N)(=O)c2ccccc2)C1 (stereo not given),-0.413
6,O=C1/C(=C\c2ccc3c(c2)OCO3)N2CCC1CC2,-0.1
7,Cc1ccc(C(=O)Nc2ccc(Cl)cc2C(=O)c2ccccc2)cc1,-0.334
8,O=P(NS(=O)(=O)c1ccc(Br)cc1)(Oc1ccccc1)Oc1ccccc1,0.284
9,C=CCN1C(=O)C2(C(C(=O)OCC)=C(N)Oc3c2c(=O)oc2ccccc32)c2ccccc21 (stereo not given),-0.965
10,Cc1ccc(N(C)C(=O)Oc2cccc3cccnc23)cc1,-0.206
11,COc1ccccc1N=Cc1c(O)n(C)c(=O)n(C)c1=O,-0.293
12,Cc1nc2c(-c3ccccc3)c(C)nn2c(C)c1CCC(=O)N1CCC2(CC1)OCCO2,-0.584
13,O=C1NC(=S)NC(=O)C1C/C=C/c1ccccc1,0.496
14,Cc1cccc(N2C(=O)/C(=C/c3ccc(CN(CCC#N)S(C)(=O)=O)o3)C(=O)NC2=S)c1,-0.361
15,O=C(CN1CCN(Cc2ccc(Cl)cc2)C1=O)N1CCC2(CC1)OCCO2,0.275
16,C=Cn1ccnc1P(=S)(c1nccn1C=C)C1CCCCC1,-0.0699
17,CN(C)CC1CSCCC1(O)c1cccc(Cl)c1 (stereo not given),0.741
18,O=c1c2ccccc2nc(-c2ccc(-c3ccccc3)cc2)n1-c1ccncc1,0.336
19,CC(=O)N1CN2CN(C(C)=O)CC(C(=O)c3ccc(Br)cc3)(C2)C1,-0.181
20,CCC1(c2ccccc2)C(=O)N(COC)C(=O)N(COC)C1=O,0.0401
21,CC(C)(C)c1ccc(S(=O)(=O)N2CC3CC(C2)c2cccc(=O)n2C3)cc1 (stereo not given),-0.293
22,COc1ccc(-n2c(O)c(C=NCCCn3ccnc3)c(=O)[nH]c2=O)cc1,0.21

row,Compound,z-score
1,O=C(c1ccc2c(=O)n(Cc3ccc4c(c3)OCO4)c(=S)[nH]c2c1)N1CCC2(CC1)OCCO2,-0.113
2,Cc1ccc2c(c1)CC1(CN2C)C(=O)NC(=O)N(c2cc(C)ccc2C)C1=O (stereo not given),-0.3
3,O=c1[nH]c2c(c(=O)n1C1CCCCC1)CCC2,0.316
4,Cc1cc(OCC(=O)OC(C)C)c2c3c(c(=O)oc2c1)CCCC3,-0.538
5,CCCCCSc1cc(OC)c(CCN(C)C)cc1OC,1.47
6,Cc1cc(Oc2ccc(C(F)(F)F)cc2[N+](=O)[O-])c2c3c(c(=O)oc2c1)CCCC3,-0.256
7,CC(C)CC1C(C#N)=C(N)Oc2c1c(=O)oc1ccccc21 (stereo not given),-0.0513
8,Cn1c(=O)c2c(nc(N/N=C/c3c(O)n(-c4ccccc4)c(=S)[nH]c3=O)n2C)n(C)c1=O,-0.117
9,CC1(C)NCCN2C(=O)CSC21 (stereo not given),0.0385
10,O=C(CN1CCOCC1)c1cccc2ccccc12,-0.17
11,CCOc1ccc(NC(=O)c2ccc(NC(=O)COC(=O)Cc3ccccc3)cc2)cc1,-0.0952
12,CC(C)CN(CC(C)C)c1ccc(C=C2C(=O)NC(=S)NC2=O)cc1[N+](=O)[O-],2.35
13,N=C(N)c1c(O)n(C2CCCCC2)c(=O)n(C2CCCCC2)c1=O,-0.146
14,CCC(=Nc1ccc(OC)cc1OC)c1c(O)n(C2CCCCC2)c(=O)[nH]c1=O,-0.386
15,O=c1c2ccccc2nc(-c2ccco2)n1-c1nccs1,-0.154
16,CC(C)OC12Oc3ccccc3C=C1N1CCC2CC1 (stereo not given),1.77
17,N#Cc1ccccc1Cn1cc(C(=O)c2ccco2)c2ccccc21,-0.818
18,Clc1cccc(CN2CCCCC2c2cccnc2)c1 (stereo not given),-0.113
19,O=C(COC(=O)c1cccc(O)c1)Nc1ccc(Cl)cc1C(=O)c1ccccc1,-0.689
20,CN(C)C(=O)On1c(-c2ccccc2)nc2ccc(Cl)cc21,-0.0178
21,CC[N+]12CCC(CC1)C(=C(c1ccccc1)c1ccccc1)C2,0.015
22,COc1nc2ccccc2c(=O)n1-c1ccc(C)cc1,-0.0243
